# From ChEMBL document CHEMBL5506067, “Searching for Synthetic Opioid Rescue Agents: Identification of a Potent Opioid Agonist with Reduced Respiratory Depression” (J Med Chem, 2024)
# Columns and labels:
# [1] = biological target: T1, Mu-type opioid receptor (Homo sapiens, UniProt P35372); assay: Agonist activity at human MOR expressed in CHO-K1 cells assessed as decrease in cAMP level incubated for 30 mins in presence of forskolin by HitHunter cAMP analysis; format: functional, cell-based
# [2] = biological target: T2, Delta-type opioid receptor (Homo sapiens, UniProt P41143); assay: Agonist activity at human DOR expressed in CHO-K1 cells assessed as decrease in cAMP level incubated for 30 mins in presence of forskolin by HitHunter cAMP analysis; format: functional, cell-based
# T2 sequence (P41143 whole entry): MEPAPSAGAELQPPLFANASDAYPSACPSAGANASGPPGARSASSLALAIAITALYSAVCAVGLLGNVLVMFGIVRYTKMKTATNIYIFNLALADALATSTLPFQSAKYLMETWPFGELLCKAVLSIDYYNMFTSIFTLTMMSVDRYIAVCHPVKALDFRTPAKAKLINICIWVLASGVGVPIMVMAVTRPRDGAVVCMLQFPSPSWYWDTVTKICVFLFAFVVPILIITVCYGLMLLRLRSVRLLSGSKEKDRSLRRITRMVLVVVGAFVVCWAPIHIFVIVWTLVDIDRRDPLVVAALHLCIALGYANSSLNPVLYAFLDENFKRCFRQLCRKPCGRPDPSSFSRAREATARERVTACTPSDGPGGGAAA
# [3] = biological target: T3, Kappa-type opioid receptor (Homo sapiens, UniProt P41145); assay: Agonist activity at human KOR expressed in CHO-K1 cells assessed as decrease in cAMP level incubated for 30 mins in presence of forskolin by HitHunter cAMP analysis; format: functional, cell-based
# T3 sequence (P41145 whole entry): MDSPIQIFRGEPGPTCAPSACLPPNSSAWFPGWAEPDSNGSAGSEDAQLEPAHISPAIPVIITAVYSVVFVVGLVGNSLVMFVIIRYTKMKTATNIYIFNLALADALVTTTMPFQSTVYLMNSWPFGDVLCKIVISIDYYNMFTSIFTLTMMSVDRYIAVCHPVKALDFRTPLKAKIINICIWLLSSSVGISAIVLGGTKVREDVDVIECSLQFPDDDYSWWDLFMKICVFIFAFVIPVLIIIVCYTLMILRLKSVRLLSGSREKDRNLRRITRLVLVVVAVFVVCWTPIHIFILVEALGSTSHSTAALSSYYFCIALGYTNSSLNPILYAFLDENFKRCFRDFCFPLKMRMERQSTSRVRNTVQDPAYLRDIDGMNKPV
# [4] = biological target: Nociceptin receptor (Homo sapiens, UniProt P41146); assay: Agonist activity at human NOR expressed in CHO-K1 cells assessed as decrease in cAMP level incubated for 30 mins in presence of forskolin by HitHunter cAMP analysis; format: functional, cell-based
# UniProt P41146, sequence (P41146 whole entry): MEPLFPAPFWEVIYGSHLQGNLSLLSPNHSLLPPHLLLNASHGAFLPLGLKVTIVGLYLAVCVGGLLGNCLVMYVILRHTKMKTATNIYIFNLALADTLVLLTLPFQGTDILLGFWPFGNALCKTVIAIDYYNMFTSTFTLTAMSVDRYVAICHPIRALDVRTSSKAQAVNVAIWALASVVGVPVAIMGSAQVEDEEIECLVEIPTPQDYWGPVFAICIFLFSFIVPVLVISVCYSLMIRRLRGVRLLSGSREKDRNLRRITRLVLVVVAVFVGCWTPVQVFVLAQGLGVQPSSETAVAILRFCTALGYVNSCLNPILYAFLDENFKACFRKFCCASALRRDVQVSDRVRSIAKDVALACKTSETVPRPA
# [5] = biological target: T3, Kappa-type opioid receptor; assay: Antagonist activity at human KOR expressed in CHO-K1 cells assessed as cAMP level preincubated for 15 mins followed by agonist addition and measured after 30 mins by HitHunter cAMP analysis; format: functional, cell-based
# [6] = biological target: T1, Mu-type opioid receptor; assay: Agonist activity at human MOR expressed in CHO-K1 cells assessed as decrease in beta-arrestin 2 recruitment incubated for 90 mins by HitHunter cAMP analysis; format: functional, cell-based
# [7] = biological target: T2, Delta-type opioid receptor; assay: Partial agonist activity at human DOR expressed in CHO-K1 cells assessed as decrease in cAMP level incubated for 30 mins in presence of forskolin by HitHunter cAMP analysis; format: functional, cell-based
# [8] = Cmax in Sprague-Dawley rat brain at 10 mg/kg, ip measured upto 4 hrs by LC-MS/MS analysis; format: ADME, organism-based
# [9] = Half-life in Sprague-Dawley rat brain at 10 mg/kg, ip measured upto 4 hrs by LC-MS/MS analysis; format: ADME, organism-based
# [10] = AUC in Sprague-Dawley rat brain at 10 mg/kg, ip measured upto 4 hrs by LC-MS/MS analysis; format: ADME, organism-based; conditions: in vivo
# [11] = Tmax in Sprague-Dawley rat brain at 10 mg/kg, ip measured upto 4 hrs by LC-MS/MS analysis; format: ADME, organism-based; conditions: in vivo
# [12] = Apparent permeability coefficient in Sprague-Dawley rat brain at 10 mg/kg, ip measured upto 4 hrs by LC-MS/MS analysis; format: ADME, organism-based
# [13] = biological target: T1, Mu-type opioid receptor; assay: Agonist activity at MOR (unknown origin); format: functional
# [14] = biological target: T2, Delta-type opioid receptor; assay: Agonist activity at DOR (unknown origin); format: functional
# [15] = biological target: T3, Kappa-type opioid receptor; assay: Antagonist activity at KOR (unknown origin); format: functional
# [16] = biological target: T4, Alpha-1A adrenergic receptor (Homo sapiens, UniProt P35348); assay: Inhibition of alpha1A adrenoreceptor (unknown origin)
# T4 sequence (P35348 whole entry): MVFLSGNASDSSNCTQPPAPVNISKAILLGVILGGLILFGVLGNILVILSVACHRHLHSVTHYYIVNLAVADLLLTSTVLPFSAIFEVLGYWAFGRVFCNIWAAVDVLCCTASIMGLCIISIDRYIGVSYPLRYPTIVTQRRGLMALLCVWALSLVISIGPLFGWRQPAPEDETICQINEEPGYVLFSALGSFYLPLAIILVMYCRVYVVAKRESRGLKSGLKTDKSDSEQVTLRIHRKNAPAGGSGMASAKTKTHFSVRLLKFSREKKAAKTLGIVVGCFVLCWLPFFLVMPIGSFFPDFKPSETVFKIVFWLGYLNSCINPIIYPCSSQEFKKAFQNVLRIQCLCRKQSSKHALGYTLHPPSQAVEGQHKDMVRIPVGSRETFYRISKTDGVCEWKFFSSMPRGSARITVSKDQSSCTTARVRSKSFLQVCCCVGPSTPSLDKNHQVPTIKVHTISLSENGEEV
# [17] = biological target: T5, Alpha-2A adrenergic receptor (Homo sapiens, UniProt P08913); assay: Inhibition of alpha2A adrenoreceptor (unknown origin)
# T5 sequence (P08913 whole entry): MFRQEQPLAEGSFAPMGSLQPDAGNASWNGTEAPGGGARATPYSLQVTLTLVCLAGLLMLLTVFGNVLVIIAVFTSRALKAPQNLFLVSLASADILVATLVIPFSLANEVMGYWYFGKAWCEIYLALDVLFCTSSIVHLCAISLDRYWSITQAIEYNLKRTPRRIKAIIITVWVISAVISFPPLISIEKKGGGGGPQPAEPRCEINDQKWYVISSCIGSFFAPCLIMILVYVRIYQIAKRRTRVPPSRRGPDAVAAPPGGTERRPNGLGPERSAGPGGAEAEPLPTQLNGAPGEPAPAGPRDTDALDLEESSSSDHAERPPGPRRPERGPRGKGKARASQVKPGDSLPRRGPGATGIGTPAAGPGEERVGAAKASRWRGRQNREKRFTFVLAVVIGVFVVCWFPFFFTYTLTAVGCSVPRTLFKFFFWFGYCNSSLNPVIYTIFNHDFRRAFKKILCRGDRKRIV
# [18] = biological target: 5-hydroxytryptamine receptor 2A (Homo sapiens, UniProt P28223); assay: Inhibition of 5HT-2A (unknown origin)
# [19] = biological target: T6, Androgen receptor (Homo sapiens, UniProt P10275); assay: Inhibition of androgen nuclear hormone receptor (unknown origin)
# T6 sequence (P10275 whole entry): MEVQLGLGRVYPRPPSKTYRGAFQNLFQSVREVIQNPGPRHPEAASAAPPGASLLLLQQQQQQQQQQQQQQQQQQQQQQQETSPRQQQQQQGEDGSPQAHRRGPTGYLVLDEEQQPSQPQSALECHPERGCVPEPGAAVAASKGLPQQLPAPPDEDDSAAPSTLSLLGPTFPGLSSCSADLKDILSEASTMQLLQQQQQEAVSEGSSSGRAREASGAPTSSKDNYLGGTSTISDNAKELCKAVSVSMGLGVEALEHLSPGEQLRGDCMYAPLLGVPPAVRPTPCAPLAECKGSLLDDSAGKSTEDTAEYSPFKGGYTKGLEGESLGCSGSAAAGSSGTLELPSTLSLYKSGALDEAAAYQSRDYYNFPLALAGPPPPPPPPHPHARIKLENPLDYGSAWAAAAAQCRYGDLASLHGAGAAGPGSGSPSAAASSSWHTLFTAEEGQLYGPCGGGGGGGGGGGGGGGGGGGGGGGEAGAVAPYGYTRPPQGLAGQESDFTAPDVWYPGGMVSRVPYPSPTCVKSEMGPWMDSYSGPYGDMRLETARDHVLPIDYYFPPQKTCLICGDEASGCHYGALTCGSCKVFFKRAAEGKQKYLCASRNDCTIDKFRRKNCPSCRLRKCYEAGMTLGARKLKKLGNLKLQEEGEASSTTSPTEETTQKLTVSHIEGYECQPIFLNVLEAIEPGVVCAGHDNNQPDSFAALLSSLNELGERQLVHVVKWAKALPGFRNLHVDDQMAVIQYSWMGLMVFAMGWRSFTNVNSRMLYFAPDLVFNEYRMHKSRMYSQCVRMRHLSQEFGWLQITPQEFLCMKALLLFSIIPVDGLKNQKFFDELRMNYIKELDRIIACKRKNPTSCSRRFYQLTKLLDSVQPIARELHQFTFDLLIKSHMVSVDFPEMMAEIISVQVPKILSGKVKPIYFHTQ
# [20] = biological target: Prostaglandin G/H synthase 1 (Homo sapiens, UniProt P23219); assay: Inhibition of COX-1 (unknown origin)
# [21] = biological target: T7, Prostaglandin G/H synthase 2 (Homo sapiens, UniProt P35354); assay: Inhibition of COX-2 (unknown origin)
# T7 sequence (P35354 whole entry): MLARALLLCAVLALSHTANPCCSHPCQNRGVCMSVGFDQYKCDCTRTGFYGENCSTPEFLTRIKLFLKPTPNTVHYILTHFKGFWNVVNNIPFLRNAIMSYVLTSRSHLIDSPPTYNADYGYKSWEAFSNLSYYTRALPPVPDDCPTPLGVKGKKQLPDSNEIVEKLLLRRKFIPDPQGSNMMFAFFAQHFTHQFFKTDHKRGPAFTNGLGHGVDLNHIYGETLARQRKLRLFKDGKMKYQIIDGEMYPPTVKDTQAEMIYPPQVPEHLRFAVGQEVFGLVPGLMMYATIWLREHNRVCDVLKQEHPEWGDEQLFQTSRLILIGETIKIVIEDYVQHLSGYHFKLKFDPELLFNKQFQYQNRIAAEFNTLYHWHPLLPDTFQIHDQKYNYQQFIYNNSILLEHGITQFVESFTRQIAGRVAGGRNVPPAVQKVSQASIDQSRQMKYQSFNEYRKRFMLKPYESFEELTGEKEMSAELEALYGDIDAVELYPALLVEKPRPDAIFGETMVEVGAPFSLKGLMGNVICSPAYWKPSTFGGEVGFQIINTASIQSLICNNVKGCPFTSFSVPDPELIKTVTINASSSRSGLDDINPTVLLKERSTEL
# [22] = biological target: Sodium-dependent dopamine transporter (Homo sapiens, UniProt Q01959); assay: Inhibition of dopamine transporter (unknown origin)
# [23] = biological target: Sodium-dependent noradrenaline transporter (Homo sapiens, UniProt P23975); assay: Inhibition of norepinephrine transporter (unknown origin)
# [24] = biological target: Voltage-gated inwardly rectifying potassium channel KCNH2 (Homo sapiens, UniProt Q12809); assay: Inhibition of hERG; format: toxicity
# UniProt Q12809, sequence (Q12809 whole entry): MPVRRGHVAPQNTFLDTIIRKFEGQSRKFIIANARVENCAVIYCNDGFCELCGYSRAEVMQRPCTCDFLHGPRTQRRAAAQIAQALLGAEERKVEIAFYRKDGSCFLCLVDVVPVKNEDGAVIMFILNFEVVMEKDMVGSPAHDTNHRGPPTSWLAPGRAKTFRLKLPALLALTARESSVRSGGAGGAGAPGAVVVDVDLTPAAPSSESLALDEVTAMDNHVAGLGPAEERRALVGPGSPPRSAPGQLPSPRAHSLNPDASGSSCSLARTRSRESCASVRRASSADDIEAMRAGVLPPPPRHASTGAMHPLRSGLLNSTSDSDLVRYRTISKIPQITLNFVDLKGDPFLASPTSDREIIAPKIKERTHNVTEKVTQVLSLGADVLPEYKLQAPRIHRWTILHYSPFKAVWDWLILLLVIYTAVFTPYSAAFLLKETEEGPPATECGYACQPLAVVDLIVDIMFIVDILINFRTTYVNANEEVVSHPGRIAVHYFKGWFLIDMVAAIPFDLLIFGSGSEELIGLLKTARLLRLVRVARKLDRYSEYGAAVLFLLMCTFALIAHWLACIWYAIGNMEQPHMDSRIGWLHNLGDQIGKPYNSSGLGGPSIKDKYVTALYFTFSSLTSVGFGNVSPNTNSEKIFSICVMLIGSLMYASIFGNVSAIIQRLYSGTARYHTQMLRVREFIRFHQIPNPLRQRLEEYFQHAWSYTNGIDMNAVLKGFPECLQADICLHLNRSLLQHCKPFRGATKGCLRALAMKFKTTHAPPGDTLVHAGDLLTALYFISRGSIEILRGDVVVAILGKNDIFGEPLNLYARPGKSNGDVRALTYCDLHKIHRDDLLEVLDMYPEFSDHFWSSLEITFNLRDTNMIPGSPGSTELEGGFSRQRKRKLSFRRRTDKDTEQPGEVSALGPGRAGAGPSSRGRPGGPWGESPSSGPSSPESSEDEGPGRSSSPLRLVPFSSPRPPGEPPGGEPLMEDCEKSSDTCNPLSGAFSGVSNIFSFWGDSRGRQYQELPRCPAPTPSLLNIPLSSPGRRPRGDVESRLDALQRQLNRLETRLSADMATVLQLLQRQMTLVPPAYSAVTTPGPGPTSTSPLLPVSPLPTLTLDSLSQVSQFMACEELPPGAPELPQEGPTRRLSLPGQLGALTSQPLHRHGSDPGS
# [25] = biological target: hERG (KCNH2) (Homo sapiens, UniProt Q12809); assay: Inhibition of hERG relative to control; format: toxicity; conditions: read-out: Imax
# [26] = biological target: Sodium channel protein type 5 subunit alpha (Homo sapiens, UniProt Q14524); assay: Inhibition of Nav1.5 sodium ion channel (unknown origin)
# UniProt Q14524, sequence (Q14524 whole entry): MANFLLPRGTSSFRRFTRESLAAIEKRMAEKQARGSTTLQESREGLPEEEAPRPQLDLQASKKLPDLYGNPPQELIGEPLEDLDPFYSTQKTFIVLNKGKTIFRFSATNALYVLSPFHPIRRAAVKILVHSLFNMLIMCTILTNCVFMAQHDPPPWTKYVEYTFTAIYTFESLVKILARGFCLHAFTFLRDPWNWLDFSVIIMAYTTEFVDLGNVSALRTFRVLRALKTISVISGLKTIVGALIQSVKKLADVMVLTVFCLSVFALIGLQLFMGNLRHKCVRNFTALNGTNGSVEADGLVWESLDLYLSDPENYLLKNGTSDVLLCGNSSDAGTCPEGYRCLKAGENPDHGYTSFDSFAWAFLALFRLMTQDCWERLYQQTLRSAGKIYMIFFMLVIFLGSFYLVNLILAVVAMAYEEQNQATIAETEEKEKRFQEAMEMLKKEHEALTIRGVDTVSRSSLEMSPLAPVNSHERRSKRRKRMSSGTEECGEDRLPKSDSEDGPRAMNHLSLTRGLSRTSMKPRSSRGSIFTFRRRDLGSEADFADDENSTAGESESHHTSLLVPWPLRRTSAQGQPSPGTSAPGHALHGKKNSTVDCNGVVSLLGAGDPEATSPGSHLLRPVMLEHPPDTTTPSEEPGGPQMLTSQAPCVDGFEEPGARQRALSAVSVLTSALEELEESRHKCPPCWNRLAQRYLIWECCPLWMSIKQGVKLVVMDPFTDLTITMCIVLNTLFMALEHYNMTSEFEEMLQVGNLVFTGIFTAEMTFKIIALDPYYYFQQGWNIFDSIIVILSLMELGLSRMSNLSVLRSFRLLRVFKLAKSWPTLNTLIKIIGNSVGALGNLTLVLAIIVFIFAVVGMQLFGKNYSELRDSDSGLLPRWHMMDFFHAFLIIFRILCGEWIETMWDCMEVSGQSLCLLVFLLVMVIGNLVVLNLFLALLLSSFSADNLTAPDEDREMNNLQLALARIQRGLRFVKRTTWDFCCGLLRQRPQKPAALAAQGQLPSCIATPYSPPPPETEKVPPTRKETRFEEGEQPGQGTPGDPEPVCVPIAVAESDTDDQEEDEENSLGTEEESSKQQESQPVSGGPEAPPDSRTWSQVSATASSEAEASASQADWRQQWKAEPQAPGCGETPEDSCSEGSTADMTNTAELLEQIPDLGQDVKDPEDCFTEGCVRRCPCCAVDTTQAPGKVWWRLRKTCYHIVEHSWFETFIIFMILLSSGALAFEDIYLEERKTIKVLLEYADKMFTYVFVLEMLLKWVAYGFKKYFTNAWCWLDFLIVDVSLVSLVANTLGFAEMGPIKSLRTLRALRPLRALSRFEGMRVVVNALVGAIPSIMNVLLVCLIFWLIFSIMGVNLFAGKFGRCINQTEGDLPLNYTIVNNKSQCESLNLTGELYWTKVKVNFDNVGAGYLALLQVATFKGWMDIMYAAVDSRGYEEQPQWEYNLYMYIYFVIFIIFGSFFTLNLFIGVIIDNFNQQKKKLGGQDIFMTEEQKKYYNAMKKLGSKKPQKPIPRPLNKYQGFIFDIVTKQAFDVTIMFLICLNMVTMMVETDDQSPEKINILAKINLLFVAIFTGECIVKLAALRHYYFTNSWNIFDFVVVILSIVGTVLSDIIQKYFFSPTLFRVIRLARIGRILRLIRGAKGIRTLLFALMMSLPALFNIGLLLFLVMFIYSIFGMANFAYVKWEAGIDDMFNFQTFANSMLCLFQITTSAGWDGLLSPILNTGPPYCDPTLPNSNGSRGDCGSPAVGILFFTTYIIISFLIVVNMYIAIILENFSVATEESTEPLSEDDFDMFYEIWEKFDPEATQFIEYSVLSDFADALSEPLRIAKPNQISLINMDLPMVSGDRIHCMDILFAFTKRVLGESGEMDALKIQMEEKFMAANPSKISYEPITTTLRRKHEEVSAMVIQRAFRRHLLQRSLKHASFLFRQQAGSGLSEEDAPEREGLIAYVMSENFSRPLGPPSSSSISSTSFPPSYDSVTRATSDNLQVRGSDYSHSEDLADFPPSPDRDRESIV
# [27] = biological target: Nav1.5 sodium channel (SCN5A) (Homo sapiens, UniProt Q14524); assay: Inhibition of Nav1.5 sodium ion channel (unknown origin) relative to control; conditions: read-out: Imax
# [28] = Toxicity in B6129F1 mouse assessed as analgesic tolerance at 2.5 mg/kg, ip administered twice daily on day 2 to 7 and measured on day 8; format: organism-based; conditions: in vivo, 168 h, time 7 day
# [29] = test system: Mus musculus; assay: Antinociceptive activity in ip dosed B6129F1 mouse on day 1; format: functional; conditions: B6129F1, 24 h
# [30] = test system: Mus musculus; assay: Antinociceptive activity in ip dosed B6129F1 mouse on day 8; format: functional; conditions: B6129F1, 192 h
# [31] = Toxicity in ip dosed B6129F1 mouse assessed as precipitated withdrawal symptoms by measuring increase in jumping compound administered for 8 days followed by 10 mg/kg NTX addition and measured for 15 mins; format: organism-based; conditions: in vivo, 192.25 h, time 11535 min
# [32] = Toxicity in Sprague-Dawley rat assessed as loss of spontaneous motor activity at 0.03 to 10 mg/kg, sc measured after 15 mins; format: organism-based; conditions: in vivo, 0.25 h, dose 0.03-10 mg/kg
# [33] = Toxicity in Sprague-Dawley rat assessed as catelepsy by measuring righting reflex at 10 mg/kg, sc measured after 15 mins; format: organism-based; conditions: in vivo, 0.25 h
# [34] = Toxicity in Sprague-Dawley rat assessed as respiratory depression by measuring reduction in minute ventilation at 0.03 to 10 mg/kg, sc measured after 30 mins; format: organism-based; parameters: scale not given: the % may be the effect or the level left; conditions: in vivo, 0.5 h, dose 0.03-10 mg/kg
# T1 sequence (P35372 whole entry): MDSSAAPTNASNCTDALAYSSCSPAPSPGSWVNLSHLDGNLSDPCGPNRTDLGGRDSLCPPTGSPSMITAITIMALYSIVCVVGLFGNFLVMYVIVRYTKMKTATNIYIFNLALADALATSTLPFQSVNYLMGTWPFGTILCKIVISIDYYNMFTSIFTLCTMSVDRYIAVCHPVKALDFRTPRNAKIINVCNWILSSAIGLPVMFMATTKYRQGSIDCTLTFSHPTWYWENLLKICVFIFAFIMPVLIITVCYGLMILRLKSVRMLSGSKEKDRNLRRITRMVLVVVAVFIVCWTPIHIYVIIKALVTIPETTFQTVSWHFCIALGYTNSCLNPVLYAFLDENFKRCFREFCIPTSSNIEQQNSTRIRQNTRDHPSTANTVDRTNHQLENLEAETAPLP
smiles,measurement,setting,value
Oc1cccc(N2CCN(CCCc3ccccc3)CC2)c1,EC50,[1],> 10000 nM
C[C@H]1CN(CCCc2ccccc2)CCN1c1cccc(O)c1,EC50,[1],> 10000 nM
C[C@@H](Cc1ccsc1)NC(=O)NC[C@H](Cc1ccc(O)cc1)N(C)C,IC50,[2],108 nM
same,EC50,[3],> 10000 nM
same,EC50,[4],> 10000 nM
same,IC50,[5],270 nM
COc1ccccc1N1[C@@H]2CC[C@H]1CN(CCCc1ccccc1)C2,EC50,[1],256 nM
CN1C[C@H]2CC[C@@H](C1)N2c1cccc(O)c1,EC50,[1],122 nM
same,EC50,[6],> 50000 nM
Oc1cccc(N2[C@@H]3CC[C@H]2CN(Cc2ccccc2)C3)c1,EC50,[1],41.3 nM
same,EC50,[6],> 50000 nM
Oc1cccc(N2[C@@H]3CC[C@H]2CN(CCCc2ccccc2)C3)c1,EC50,[1],0.39 nM
same,EC50,[6],> 50000 nM
same,EC50,[7],2.18 nM
same,EC50,[3],> 10000 nM
same,EC50,[4],> 10000 nM
same,IC50,[5],357 nM
same,Cmax,[8],3300 ng/g
same,half-life,[9],1.35 h
same,AUC,[10],5929 ng·h/g
same,Tmax,[11],0.25 h
same,Kp at 4 h,[12],6.6
same,EC50,[13],1.68 nM
same,EC50,[14],4.49 nM
same,IC50,[15],2090 nM
same,IC50,[16],8700 nM
same,IC50,[17],5450 nM
same,IC50,[18],1130 nM
same,IC50,[19],8010 nM
same,IC50,[20],480 nM
same,IC50,[21],1060 nM
same,IC50,[22],500 nM
same,IC50,[23],5600 nM
same,IC50,[24],4600 nM
same,Emax,[25],68.3%
same,IC50,[26],2300 nM
same,Emax,[27],88.3%
same,Activity,[28],Toxic
same,ED50,[29],0.87 mg/kg
same,ED50,[30],3.22 mg/kg
same,Activity,[31],Toxic
same,Activity,[32],Non-Toxic
same,Activity,[33],Non-Toxic
same,Activity,[34],~ 45%
c1ccc(CCCN2C[C@H]3CC[C@@H](C2)N3c2ccccc2)cc1,EC50,[1],124 nM
same,EC50,[6],> 50000 nM
Oc1cccc(N2[C@@H]3CC[C@H]2CN(CCc2ccccc2)C3)c1,IC50,[2],23.5 nM
same,EC50,[4],> 10000 nM
